# Hit rate of the full screen: of about 350,000 compounds, about 9,900 (2.8%) were called active. The inconclusive results got no clear call from the source; some entries with a clear call stand among them for comparison. Calls follow the shape of the dose curve; as a rule, active = well fitted activation curve with a large enough effect; inconclusive = small, poorly fitted or top-dose-only effect; inactive = no such curve, though single readings can be large or run the other way. Potencies of inconclusive entries are left out as doubtful fits.
# Assay: A quantitative high throughput screen for small molecules that induce DNA re-replication in MCF 10a normal breast cells. Also: nearly all actives have a fitted effect of over 50% in size.
# Conditions: MCF 10A DNA re-replication, Hoechst nuclear intensity, 48 h; series mostly up to 46.1 µM
# Potency is read from the fitted curve at half-maximal effect; tags tell the direction and shape of the fitted curve.
row,Structure (SMILES),Potency
1,CCc1cc(Cn2nc(-c3ccccc3)cc2C(=O)NCC2CC2)on1,active: 0.146 µM
2,CCc1nc(SCC(=O)c2ccc3c(c2)OCCO3)c2ccccc2n1,"inconclusive [activator, single point]"
3,COc1ccc(CCNc2cc(C)nc3c(-c4ccccc4)cnn23)cc1OC,"inconclusive [activator, full curve]"
4,CCOC(=O)C(=O)Nc1nnc(Cc2ccc(OC)c(OC)c2)s1,"inconclusive [activator, single point]"
5,COc1cc(OC)c2c(-c3ccccc3)cc(=O)oc2c1C(CCN1CCOCC1)c1ccc2c(c1)OCO2 (stereo unspecified),"inconclusive [activator, full curve, poor fit]"
6,CC(=O)NC(=S)Nc1ccc(NC(=O)COc2ccc(Cl)cc2Cl)cc1,inactive
7,CCC1Sc2ccc(S(=O)(=O)CCC(=O)NCc3cccs3)cc2NC1=O (stereo unspecified),"inconclusive [activator, single point]"
8,N#CCSc1nnc(N)s1,inactive
9,COCCn1c(SCC(=O)NC(C)c2ccc(F)cc2)nc2ccccc21 (stereo unspecified),"inconclusive [activator, partial curve, poor fit]"
10,O=C(c1cnn2c(C(F)(F)F)cc(-c3cccs3)nc12)N1CCN(Cc2ccccc2)CC1,"inconclusive [activator, partial curve, poor fit]"
11,COCC(=O)N(Cc1cc2ccc(C)cc2[nH]c1=O)c1cccc(C)c1,"inconclusive [activator, full curve, poor fit]"
12,O=C(NCC1CCCO1)c1cc2ccccc2o1 (stereo unspecified),inactive
13,O=C(Cc1c(F)cccc1Cl)Nc1nc2ccccc2s1,"inconclusive [activator, full curve, poor fit]"
14,CCCCOC(=O)c1ccc(N/C(=N\S(=O)(=O)c2ccccc2)c2ccccc2)cc1,"inconclusive [activator, partial curve, poor fit]"
15,CN(C)CCN(C(=O)c1ccc(S(=O)(=O)N2CCCC2)cc1)c1nc2ccc(Br)cc2s1,inactive
16,O=C1c2ccc3c4c(ccc(c24)C(=O)N1CCCCO)C(=O)N(CCCCO)C3=O,"inconclusive [activator, partial curve]"
17,CCOC(=O)C1=CN(Cc2cccc(-c3cccnc3)c2)S(=O)(=O)N(CC)C1C (stereo unspecified),"inconclusive [activator, single point]"
18,CN(C)c1ccc(CNn2cnnc2SCc2ccc(F)cc2)cc1,"inconclusive [activator, single point]"
19,Cc1ccc2nc(NC(=O)C3CC3C)sc2c1 (stereo unspecified),inactive
20,CCn1c(SCC(N)=O)nc2c(c1=O)C1(CCCC1)Cc1ccccc1-2,"inconclusive [activator, single point]"
21,COc1ccc(C(=O)N=c2sc3c(C)ccc(OC)c3n2C)cc1OC,inactive
22,CC(C)(C)OC(=O)C[C@H]1C/C=C\C[C@@H](CC(=O)N[C@H](CO)Cc2ccccc2)C(=O)NC[C@H](c2ccccc2)OC1=O,inactive
23,CCCCC(=O)NC(c1ccc(N(C)C)cc1)c1ccc2cccnc2c1O (stereo unspecified),"inconclusive [activator, partial curve]"
24,COc1ccc(NC2c3ccccc3C(=O)N2c2cccnc2)cc1 (stereo unspecified),"inconclusive [activator, full curve, poor fit]"

row,Structure (SMILES),Potency
1,CCOC(=O)N1CCN(C(=O)C(c2ccccc2)c2ccccc2)CC1,"inconclusive [activator, partial curve, poor fit]"
2,C/C=C/c1ccc(OCCOc2cccc3cccnc23)c(OC)c1,"inconclusive [activator, partial curve, poor fit]"
3,CN(C)c1ccc(/C=N/n2ncc3ccccc32)cc1,"inconclusive [activator, single point]"
4,Cc1ccc2c(C)c(C(=O)NCCc3ccco3)oc2c1C,inactive
5,c1ccc2cc(OCCCn3ccnc3)ccc2c1,inactive
6,CC(=O)c1ccc(N2CCC(C)CC2)c(F)c1,"inconclusive [activator, single point]"
7,CC(C)(C)C(=O)Nc1ccc(Cc2ccncc2)cc1,inactive
8,Cn1c(O)c(N=Nc2ccccc2[N+](=O)[O-])c2ccccc21,inactive
9,Fc1ccc(C2CC(c3ccco3)=Nc3ccccc3S2)cc1 (stereo unspecified),"inconclusive [activator, single point]"
10,COc1cc(/C=N/NC(=O)c2cc(-c3ccc4c(c3)OCO4)n[nH]2)ccc1O,inactive
11,NC(=O)CSc1nnc2ccc(-c3ccc(F)cc3)nn12,inactive
12,CC(=O)N(c1nnc(-c2ccc(C)cc2)s1)C1CCCC1,"inconclusive [activator, partial curve, poor fit]"
13,CCCCc1cc(=O)oc2cc(OCC(=O)NC(Cc3c[nH]c4ccc(O)cc34)C(=O)O)ccc12 (stereo unspecified),"inconclusive [activator, full curve, poor fit]"
14,CCCn1c(NC(=O)CCNC(=O)c2ccccc2Cl)nc2ccccc21,inactive
15,CC(Cc1c[nH]c2ccccc12)C(=O)NCc1ccco1 (stereo unspecified),inactive
16,Cc1cccc(NC(=O)c2nc[nH]c2C(=O)NCc2ccccc2)c1,"inconclusive [activator, single point]"
17,Cc1ccccc1C(=O)Nc1ccc(-c2nnc(SC(C)C(=O)O)n2C)cc1 (stereo unspecified),inactive
18,CC(C)(C)OC(=O)N(Cc1ccccc1)Cc1cccc(OCc2cccc(NC(=O)c3ccccc3)c2)c1,active: 0.291 µM
19,O=c1cc(O)nc(SCc2ccccc2)n1-c1ccc(F)cc1,"inconclusive [activator, full curve, poor fit]"
20,O=C(N/N=C/c1c[nH]c2ccccc12)c1cc(-c2ccc(-c3ccccc3)cc2)n[nH]1,active: 14.6 µM
21,Cc1ccc(-n2ncc3c(=O)n(CC(=O)N(C)C)cnc32)cc1,inactive
22,NC(=O)CCCc1nc(-c2ccccc2)no1,"inconclusive [activator, single point]"
23,Clc1ccc(C=NNc2ccccn2)c(Cl)c1,inactive
24,CCOC(=O)N1CCN(C(=O)c2cccn3c(=O)c4c5c(sc4nc23)CCCC5)CC1,"inconclusive [activator, single point]"

row,Structure (SMILES),Potency
1,CCCCOC(=O)/C(=C\c1ccc([N+](=O)[O-])o1)NC(=O)c1ccccc1,inactive
2,CCCCCCc1cc2cc(C(=O)OCC)c(=O)oc2cc1O,"inconclusive [activator, full curve, poor fit]"
3,O=C(NC(=S)Nc1ccccc1C(F)(F)F)c1ccccc1F,active: 10.3 µM
4,O=C(NCc1ccccc1)c1ccc(CS(=O)(=O)Cc2ccccc2F)o1,inactive
5,CCC/C(O)=C1\C(=O)CCCC1=NCCc1c(C)[nH]c2ccc(C)cc12,"inconclusive [activator, single point]"
6,CC12CCC(C(=O)Nc3cccc(Cl)c3Cl)([C@H](Br)C1=O)C2(C)C (stereo partly specified),"inconclusive [activator, single point]"
7,O=C(O)c1cccc(Nc2nc(C(F)(F)F)nc3ccccc23)c1,"inconclusive [activator, full curve, poor fit]"
8,CS(=O)(=O)N(CC(=O)Nc1ccc2c(c1)OCO2)c1ccccc1,active: 20.6 µM
9,CC1CC(C)CN(CCCNC(=O)C2CCCN(c3ncnc4c3nc3n4CCCCC3)C2)C1 (stereo unspecified),inactive
10,COc1cc(C(=O)NCCNc2nc3ccc(C)cc3cc2C#N)cc(OC)c1OC,"inconclusive [activator, single point]"
11,COc1cccc(Nc2nc(-c3ccc4c(c3)OCCO4)cs2)c1,"inconclusive [activator, single point]"
12,O=c1[nH]c(CSc2nnc(Cc3ccccc3)o2)nc2ccccc12,"inconclusive [activator, single point]"
13,CCCCCCCn1c(NC(=O)CC)nc2ccccc21,active: 6.51 µM
14,COc1cc2c3nnc(-c4ccc(F)cc4)c-3cn(Cc3cccc(C)c3)c2cc1OC,"inconclusive [activator, partial curve, poor fit]"
15,Cc1nc(-c2cc(-c3nc(-c4ccc(C(C)(C)C)cc4)no3)no2)cs1,"inconclusive [activator, single point]"
16,O=C(N/C(=C/c1ccco1)C(=O)N1CCOCC1)c1ccccc1Br,inactive
17,O=C(Nc1cc(Cl)cc(Cl)c1)c1ccc(Cn2c(=O)[nH]c3ccsc3c2=O)cc1,active: 23.1 µM
18,Cc1cc2cc(CCNC(=O)c3ccc(S(=O)(=O)N4CCCC4)cc3)c(=O)[nH]c2cc1C,"inconclusive [activator, partial curve, poor fit]"
19,COc1cccc(-c2cc(C(F)(F)F)n3ncc(C(=O)NCC4CCCO4)c3n2)c1 (stereo unspecified),"inconclusive [activator, single point]"
20,O=C1c2cccc3c(Nc4ccccc4Cl)c([N+](=O)[O-])cc(c23)C(=O)N1CCO,"inconclusive [activator, partial curve]"
21,O=S1(=O)c2ccc(Br)cc2N2CCC[C@@H]2CN1Cc1ccc(Cl)cc1,"inconclusive [activator, full curve, poor fit]"
22,CCOC(=O)N1CCC(Nc2ncnc3c2cnn3-c2ccc(C)cc2C)CC1,inactive
23,COc1ccc(-c2c(-c3ccc(OC)cc3O)nc(C)nc2C(F)(F)F)cc1,"inconclusive [activator, partial curve, poor fit]"
